Experimental data reported in the supplement of paper PMC6089552.
In all, about 3,200 compounds went through this assay and about 300 (9.4%) showed activity. The entries are a selection whose mix differs from that of the whole data set.

Tested on: A673/TR/shEF
Experiment: cell viability (LOESS-normalised, relative to median of negative controls) (log2 ratio); higher = more viable cells (less compound effect), active = hit call of the paper (over 3 MAD below the median)
Settings: treatment time: 72 h
Method in brief: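 Viability of A673/TR/shEF Ewing sarcoma cells was determined by CellTiter-Glo luminescence. The cells, at 1,500 per well in 384-well plates, were grown with or without doxycycline from 24 h before compound addition to switch on EWS-FLI1 shRNA knockdown, then exposed for three days to library compounds at two or more concentrations or to DMSO controls. Signals were LOESS-corrected plate by plate, normalised to the negative-control median and log2-transformed.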

[1] = 0.25 µM, library screen: screen2, EWS-FLI1 expression: high (no doxycycline)
[2] = 0.25 µM, library screen: screen2, EWS-FLI1 expression: low (doxycycline-induced shRNA knockdown)
[3] = 2.5 µM, library screen: screen2, EWS-FLI1 expression: high (no doxycycline)
[4] = 2.5 µM, library screen: screen2, EWS-FLI1 expression: low (doxycycline-induced shRNA knockdown)
[5] = 0.25 µM, library screen: screen1, EWS-FLI1 expression: high (no doxycycline)
[6] = 0.25 µM, library screen: screen1, EWS-FLI1 expression: low (doxycycline-induced shRNA knockdown)
[7] = 2.5 µM, library screen: screen1, EWS-FLI1 expression: high (no doxycycline)
[8] = 2.5 µM, library screen: screen1, EWS-FLI1 expression: low (doxycycline-induced shRNA knockdown)
[9] = 0.103 µM, library screen: screen3, EWS-FLI1 expression: high (no doxycycline)
[10] = 0.103 µM, library screen: screen3, EWS-FLI1 expression: low (doxycycline-induced shRNA knockdown)
[11] = 0.308 µM, library screen: screen3, EWS-FLI1 expression: high (no doxycycline)
[12] = 0.308 µM, library screen: screen3, EWS-FLI1 expression: low (doxycycline-induced shRNA knockdown)
[13] = 0.926 µM, library screen: screen3, EWS-FLI1 expression: high (no doxycycline)
[14] = 0.926 µM, library screen: screen3, EWS-FLI1 expression: low (doxycycline-induced shRNA knockdown)
[15] = 2.8 µM, library screen: screen3, EWS-FLI1 expression: high (no doxycycline)
[16] = 2.8 µM, library screen: screen3, EWS-FLI1 expression: low (doxycycline-induced shRNA knockdown)
[17] = 8.3 µM, library screen: screen3, EWS-FLI1 expression: high (no doxycycline)
[18] = 8.3 µM, library screen: screen3, EWS-FLI1 expression: low (doxycycline-induced shRNA knockdown)
[19] = 25 µM, library screen: screen3, EWS-FLI1 expression: high (no doxycycline)
[20] = 25 µM, library screen: screen3, EWS-FLI1 expression: low (doxycycline-induced shRNA knockdown)

Measured: cell viability (log2)

CCc1c(C(=O)OC)ncc2[nH]c3cc(OC)c(OC)cc3c12
inactive: [1] 0.212 | [2] 0.033 | [3] 0.14 | [4] 0.0303

CC(=O)NCCc1c[nH]c2ccccc12
inactive: [1] 0.149 | [2] 0.143 | [3] 0.0895 | [4] 0.082

Nc1ccc(CCN2CCN(c3cccc(C(F)(F)F)c3)CC2)cc1
inactive: [1] 0.0196 | [2] 0.0537 | [3] 0.131 | [4] 0.044

COc1cccc2c1cc([N+](=O)[O-])c1c(C(=O)O)cc3c(c12)OCO3
inactive: [5] 0.0105 | [6] 0.00257 | [8] -0.0027
active: [7] -0.209

COc1ccc2c3c1O[C@H]1[C@@H](O)CCC4[C@@H](C2)N(C)CC[C@@]341 (stereo not given in full)
inactive: [5] 0.0725 | [6] 0.0483 | [7] 0.0123 | [8] 0.128

CC(=O)Nc1cc([As](=O)(O)O)ccc1O
inactive: [5] 0.0629 | [6] 0.0714 | [7] 0.14 | [8] 0.0911

C/C=C(\C)C(=O)O[C@H]1C[C@@H](OC(C)=O)[C@@]2(C(=O)OC)CO[C@H]3[C@@H](O)[C@@](C)([C@]45O[C@@]4(C)[C@H]4C[C@@H]5O[C@@H]5OC=C[C@@]54O)[C@H]4[C@]1(CO[C@]4(O)C(=O)OC)[C@@H]32
inactive: [5] 0.103 | [6] 0.0233 | [7] 0.139 | [8] -0.02

Cc1cc2c(C(C)C)c(O)c(O)c(C=O)c2c(O)c1-c1c(C)cc2c(C(C)C)c(O)c(O)c(C=O)c2c1O
inactive: [5] 0.077 | [6] 0.0973 | [7] 0.153 | [8] 0.186

CCCN1CC[C@@H]2c3cc(O)ccc3CC[C@@H]21
inactive: [1] 0.0449 | [2] -0.0153 | [3] 0.0773 | [4] 0.0525

O=c1[nH]c2ccccc2n1C1CCN(CCCC(c2ccc(F)cc2)c2ccc(F)cc2)CC1
inactive: [5] 0.137 | [6] 0.115 | [1] 0.0689 | [2] 0.102 | [7] 0.12 | [8] -0.00591 | [3] 0.108 | [4] 0.116

CC(=O)[O][Hg][c]1ccccc1
active: [5] -0.557 | [7] -2.86 | [8] -2.46

C=CCN1CC[C@]23CCCC[C@H]2[C@H]1Cc1ccc(O)cc13
inactive: [1] 0.184 | [2] 0.17 | [3] 0.208 | [4] 0.0718

CC1(C)C(=O)C=C[C@]2(C)C1=C(O)C(=O)[C@@]1(C)[C@H]2CC[C@]2(C)[C@@H](c3ccoc3)C[C@@H]3O[C@]312
inactive: [5] 0.0131 | [6] 0.0981 | [7] -0.0522 | [8] 0.0901

CCCCCCCCC(=O)NCc1ccc(O)c(OC)c1
inactive: [5] 0.0243 | [6] 0.0218 | [1] 0.196 | [2] 0.0548 | [7] 0.0338 | [8] 0.0518 | [3] 0.0799 | [4] 0.0818

NCCc1c[nH]c2ccc(C(N)=O)cc12
inactive: [1] 0.189 | [2] 0.0794 | [3] 0.175 | [4] 0.145

O=S1(=O)N(CCN2CC=C(c3c[nH]c4cc(F)ccc34)CC2)c2cccc3c2N1CCC3
inactive: [1] 0.126 | [2] 0.117 | [3] 0.118 | [4] 0.102

N#CC(C#N)=Cc1ccc([N+](=O)[O-])c(O)c1
inactive: 0.025 µM, library screen: screen1, EWS-FLI1 expression: low (doxycycline-induced shRNA knockdown) 0.0132 | [6] -0.0619 | [1] 0.0683 | [2] 0.016
active: [7] -0.131 | [8] -0.169 | [3] -0.559 | [4] -0.298 | 25 µM, library screen: screen1, EWS-FLI1 expression: high (no doxycycline) -0.408 | 25 µM, library screen: screen1, EWS-FLI1 expression: low (doxycycline-induced shRNA knockdown) -0.158
0.298: 0.025 µM, library screen: screen1, EWS-FLI1 expression: high (no doxycycline)
0.311: [5]

Clc1ccc(N2CCN(Cc3c[nH]c4ncccc34)CC2)cc1
inactive: [1] 0.202 | [2] 0.143 | [3] 0.163 | [4] 0.0993

CCn1cnc2c(Nc3cccc(Cl)c3)nc(N[C@@H]3CCCC[C@@H]3N)nc21
inactive: [1] 0.222 | [2] 0.14 | [4] -0.0222
active: [3] -0.199

NCCCNCCSP(=O)(O)O
inactive: [5] 0.0926 | [6] 0.068 | [1] 0.139 | [2] 0.0376 | [7] 0.0754 | [8] 0.129 | [3] 0.152 | [4] 0.065

CN1CCN(c2ccc3ccccc3n2)CC1
inactive: [1] 0.212 | [2] 0.03 | [3] 0.14 | [4] 0.0523

O=[N+]([O-])c1ccc(O)c([N+](=O)[O-])c1
inactive: [5] -0.0465 | [6] 0.0423 | [7] 0.0707 | [8] 0.0257

COc1cc(C(=O)O)cc(OC)c1OC
inactive: [5] 0.0772 | [6] 0.104 | [7] 0.159 | [8] 0.0844

COC1=C[C@]23CCCN2CCc2cc4c(cc2[C@@H]3[C@@H]1O)OCO4
inactive: [5] 0.0464 | [6] 0.0537 | [7] 0.119 | [8] 0.159

CNC(C)(C)Cc1ccccc1
inactive: [5] 0.116 | [6] 0.123 | [7] 0.156 | [8] 0.0873

CCOP(=S)(OCC)Oc1cc(C)nc(C(C)C)n1
inactive: [5] 0.0406 | [6] 0.0346 | [7] 0.11 | [8] 0.125

C[C@]12CCC(=O)C(O)=C1CC[C@@H]1[C@@H]2CC[C@]2(C)C(=O)CC[C@@H]12
inactive: 0.025 µM, library screen: screen2, EWS-FLI1 expression: high (no doxycycline) 0.156 | 0.025 µM, library screen: screen2, EWS-FLI1 expression: low (doxycycline-induced shRNA knockdown) 0.108 | [5] -0.025 | [6] -0.0184 | [1] 0.125 | [2] 0.0758 | [7] 0.0197 | [8] -0.0205 | [3] 0.0374 | [4] 0.0442 | 25 µM, library screen: screen2, EWS-FLI1 expression: high (no doxycycline) 0.0777 | 25 µM, library screen: screen2, EWS-FLI1 expression: low (doxycycline-induced shRNA knockdown) 0.0432

c1ccc(C2CC2)c(OCC2=NCCN2)c1
inactive: [1] 0.106 | [2] 0.0539 | [3] 0.0546 | [4] 0.0982

NCC(CP(=O)(O)O)c1ccc(Cl)cc1 (stereo not given)
inactive: [1] 0.17 | [2] 0.0448 | [3] 0.0538 | [4] 0.0365

N[C@@H](Cn1cc(I)c(=O)[nH]c1=O)C(=O)O
inactive: [1] 0.182 | [2] 0.0737 | [3] 0.187 | [4] 0.102

CNCC(O)c1ccc(O)cc1 (stereo not given)
inactive: [1] 0.178 | [2] 0.0955 | [3] 0.284 | [4] 0.0791

c1ccc(CCCN2CCN(CCOC(c3ccccc3)c3ccccc3)CC2)cc1
inactive: [1] 0.112 | [2] 0.0353 | [3] 0.143 | [4] 0.0218

CC(C)C[C@H]1C(=O)N2CCC[C@H]2[C@]2(O)O[C@](NC(=O)[C@@H]3C=C4c5cccc6[nH]c(Br)c(c56)C[C@H]4N(C)C3)(C(C)C)C(=O)N12
inactive: [5] 0.176 | [6] 0.159 | [1] 0.161 | [2] 0.0412 | [7] 0.154 | [8] 0.233 | [3] 0.0606 | [4] 0.00537

O=C(OC1CCN(CCCl)CC1)C(c1ccccc1)c1ccccc1
inactive: [1] 0.22 | [2] 0.133 | [3] 0.106 | [4] 0.137

CNC(=O)OCC[N+](C)(C)C
inactive: [1] 0.115 | [2] 0.0935 | [3] 0.161 | [4] 0.0965

NCC(=O)c1ccccc1
inactive: [5] 0.0631 | [6] 0.0462 | [7] 0.0615 | [8] -0.00509

CC1(C)C2CC(=O)[C@]3(C)C(CC[C@@]4(C)[C@H](c5ccoc5)OC(=O)[C@H]5O[C@]543)[C@@]2(C)C(=O)C[C@H]1O (stereo not given in full)
inactive: [5] 0.131 | [6] 0.0332 | [7] 0.0509 | [8] 0.0814

CP(=O)(O)CCCN
inactive: [1] 0.156 | [2] 0.102 | [3] 0.0718 | [4] 0.0598

C=C(C)C(=O)/C(=C\C(=O)O)OC
inactive: [5] 0.0761 | [6] 0.0593 | [7] 0.138 | [8] 0.0173

COC[C@]12CN(C=O)[C@H]3C4[C@H](OC)[C@H]1C3([C@@H](OC)C[C@H]2O)[C@@H]1C[C@@]2(O)[C@H](OC(=O)c3ccccc3)[C@@H]1[C@]4(OC(C)=O)[C@@H](O)[C@@H]2OC
inactive: [5] 0.0391 | [6] 0.0831 | [7] 0.0466 | [8] 0.114

Cc1o[nH]c(=O)c1CC(N)C(=O)O (stereo not given)
inactive: [1] 0.115 | [2] 0.0119 | [3] 0.0854 | [4] 0.0272

CCN(CCCl)Cc1ccccc1Br
inactive: [1] 0.131 | [2] 0.125 | [3] 0.11 | [4] 0.0132

COc1ccc(C(CN(C)C)C2(O)CCCCC2)cc1 (stereo not given)
inactive: [9] 0.1 | [10] 0.0765 | [5] 0.147 | [6] 0.0243 | [11] 0.0583 | [12] 0.00866 | [13] -0.017 | [14] 0.1 | [7] 0.192 | [8] 0.0421 | [15] 0.0478 | [16] 0.0607 | [17] -0.0104 | [18] 0.0525 | [19] 0.0462 | [20] 0.0715

CN(C)C(=O)Oc1cccc([N+](C)(C)C)c1
inactive: [9] 0.0705 | [10] 0.081 | [5] 0.106 | [6] 0.059 | [1] 0.144 | [2] 0.115 | [11] 0.119 | [12] 0.127 | [13] 0.0705 | [14] 0.106 | [7] 0.167 | [8] 0.102 | [3] 0.078 | [4] 0.0692 | [15] 0.0671 | [16] 0.0764 | [17] 0.117 | [18] 0.0235 | [19] 0.103 | [20] 0.0552
